Laboratory results from publication PMC8748822.
Like-named read-outs stand apart in the source and are kept apart here. These are yes or no findings as the source states them, for the method shown. Binding seen in cells or lysates may run through a third protein. Some results given as binding are weak or reduced against the parent protein; the word gives no strength. Blank lines part the entries; values can stand above or below the molecule they belong to.

The chains behind the UniProt entries cited, without tags or fusion partners.
UniProt Q9UIV1: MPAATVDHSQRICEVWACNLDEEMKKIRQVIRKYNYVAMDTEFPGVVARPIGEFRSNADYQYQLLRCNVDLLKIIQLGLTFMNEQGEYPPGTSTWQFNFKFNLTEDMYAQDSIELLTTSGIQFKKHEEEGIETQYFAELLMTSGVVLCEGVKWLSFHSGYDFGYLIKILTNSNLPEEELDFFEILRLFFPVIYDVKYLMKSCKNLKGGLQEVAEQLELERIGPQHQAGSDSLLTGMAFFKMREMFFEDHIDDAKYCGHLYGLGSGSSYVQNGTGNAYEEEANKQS
UniProt A5YKK6: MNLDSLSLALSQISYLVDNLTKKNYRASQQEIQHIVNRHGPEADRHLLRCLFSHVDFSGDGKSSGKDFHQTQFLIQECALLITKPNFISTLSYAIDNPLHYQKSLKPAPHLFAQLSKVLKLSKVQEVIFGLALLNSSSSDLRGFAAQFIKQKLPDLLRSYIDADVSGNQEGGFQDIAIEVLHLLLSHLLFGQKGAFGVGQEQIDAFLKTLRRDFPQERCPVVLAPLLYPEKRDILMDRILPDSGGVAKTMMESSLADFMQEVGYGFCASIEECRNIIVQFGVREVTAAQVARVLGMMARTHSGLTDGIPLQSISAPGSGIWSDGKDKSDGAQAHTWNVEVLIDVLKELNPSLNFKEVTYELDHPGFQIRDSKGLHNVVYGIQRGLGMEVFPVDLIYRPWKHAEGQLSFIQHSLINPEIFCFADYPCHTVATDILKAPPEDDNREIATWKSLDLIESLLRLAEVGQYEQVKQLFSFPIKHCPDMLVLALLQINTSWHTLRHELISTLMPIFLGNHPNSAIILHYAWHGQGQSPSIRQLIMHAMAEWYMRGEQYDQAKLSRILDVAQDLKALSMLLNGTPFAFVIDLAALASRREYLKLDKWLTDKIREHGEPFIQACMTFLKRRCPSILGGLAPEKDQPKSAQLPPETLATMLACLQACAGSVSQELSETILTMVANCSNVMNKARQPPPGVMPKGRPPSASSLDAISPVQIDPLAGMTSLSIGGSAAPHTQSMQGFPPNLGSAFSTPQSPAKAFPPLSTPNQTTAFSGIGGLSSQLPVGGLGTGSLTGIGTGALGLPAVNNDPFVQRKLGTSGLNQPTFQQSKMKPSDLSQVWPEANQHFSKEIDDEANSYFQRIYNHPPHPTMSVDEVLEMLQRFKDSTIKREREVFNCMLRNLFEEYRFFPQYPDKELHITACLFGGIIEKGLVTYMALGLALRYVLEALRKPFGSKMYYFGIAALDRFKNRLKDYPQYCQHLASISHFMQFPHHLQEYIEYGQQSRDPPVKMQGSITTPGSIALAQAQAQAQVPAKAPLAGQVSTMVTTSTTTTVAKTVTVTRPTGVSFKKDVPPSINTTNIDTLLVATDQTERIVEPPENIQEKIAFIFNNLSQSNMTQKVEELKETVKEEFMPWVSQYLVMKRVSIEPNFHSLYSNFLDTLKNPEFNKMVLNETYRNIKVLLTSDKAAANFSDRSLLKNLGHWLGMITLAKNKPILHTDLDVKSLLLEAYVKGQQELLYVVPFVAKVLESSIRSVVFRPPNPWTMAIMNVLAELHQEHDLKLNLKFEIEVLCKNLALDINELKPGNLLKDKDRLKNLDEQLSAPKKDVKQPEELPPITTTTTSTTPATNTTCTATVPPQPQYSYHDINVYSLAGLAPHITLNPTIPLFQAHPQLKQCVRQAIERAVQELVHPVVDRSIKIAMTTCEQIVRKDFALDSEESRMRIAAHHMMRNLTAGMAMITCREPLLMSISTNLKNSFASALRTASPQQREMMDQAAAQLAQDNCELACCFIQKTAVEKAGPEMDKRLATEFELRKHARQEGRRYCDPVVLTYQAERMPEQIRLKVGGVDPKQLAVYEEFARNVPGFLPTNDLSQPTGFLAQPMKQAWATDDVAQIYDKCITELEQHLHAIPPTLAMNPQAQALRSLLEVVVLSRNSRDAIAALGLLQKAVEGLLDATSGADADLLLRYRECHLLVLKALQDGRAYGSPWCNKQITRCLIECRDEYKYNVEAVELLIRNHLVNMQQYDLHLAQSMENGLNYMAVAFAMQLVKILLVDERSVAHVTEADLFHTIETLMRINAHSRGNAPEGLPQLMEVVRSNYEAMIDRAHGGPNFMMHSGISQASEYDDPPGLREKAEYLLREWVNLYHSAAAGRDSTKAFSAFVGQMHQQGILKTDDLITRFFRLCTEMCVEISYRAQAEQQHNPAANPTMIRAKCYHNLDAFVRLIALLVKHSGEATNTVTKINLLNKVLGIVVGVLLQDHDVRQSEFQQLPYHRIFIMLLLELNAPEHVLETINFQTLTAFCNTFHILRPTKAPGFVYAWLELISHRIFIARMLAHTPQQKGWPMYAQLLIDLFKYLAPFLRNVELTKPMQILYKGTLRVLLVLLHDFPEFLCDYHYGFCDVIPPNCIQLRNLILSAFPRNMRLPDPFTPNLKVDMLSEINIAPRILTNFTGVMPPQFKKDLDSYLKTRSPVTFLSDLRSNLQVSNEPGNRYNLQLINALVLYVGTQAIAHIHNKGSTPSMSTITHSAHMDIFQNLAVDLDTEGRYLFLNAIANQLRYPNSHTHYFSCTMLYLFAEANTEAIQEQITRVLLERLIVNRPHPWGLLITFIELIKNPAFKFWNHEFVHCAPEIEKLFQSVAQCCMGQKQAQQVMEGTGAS
UniProt O60293: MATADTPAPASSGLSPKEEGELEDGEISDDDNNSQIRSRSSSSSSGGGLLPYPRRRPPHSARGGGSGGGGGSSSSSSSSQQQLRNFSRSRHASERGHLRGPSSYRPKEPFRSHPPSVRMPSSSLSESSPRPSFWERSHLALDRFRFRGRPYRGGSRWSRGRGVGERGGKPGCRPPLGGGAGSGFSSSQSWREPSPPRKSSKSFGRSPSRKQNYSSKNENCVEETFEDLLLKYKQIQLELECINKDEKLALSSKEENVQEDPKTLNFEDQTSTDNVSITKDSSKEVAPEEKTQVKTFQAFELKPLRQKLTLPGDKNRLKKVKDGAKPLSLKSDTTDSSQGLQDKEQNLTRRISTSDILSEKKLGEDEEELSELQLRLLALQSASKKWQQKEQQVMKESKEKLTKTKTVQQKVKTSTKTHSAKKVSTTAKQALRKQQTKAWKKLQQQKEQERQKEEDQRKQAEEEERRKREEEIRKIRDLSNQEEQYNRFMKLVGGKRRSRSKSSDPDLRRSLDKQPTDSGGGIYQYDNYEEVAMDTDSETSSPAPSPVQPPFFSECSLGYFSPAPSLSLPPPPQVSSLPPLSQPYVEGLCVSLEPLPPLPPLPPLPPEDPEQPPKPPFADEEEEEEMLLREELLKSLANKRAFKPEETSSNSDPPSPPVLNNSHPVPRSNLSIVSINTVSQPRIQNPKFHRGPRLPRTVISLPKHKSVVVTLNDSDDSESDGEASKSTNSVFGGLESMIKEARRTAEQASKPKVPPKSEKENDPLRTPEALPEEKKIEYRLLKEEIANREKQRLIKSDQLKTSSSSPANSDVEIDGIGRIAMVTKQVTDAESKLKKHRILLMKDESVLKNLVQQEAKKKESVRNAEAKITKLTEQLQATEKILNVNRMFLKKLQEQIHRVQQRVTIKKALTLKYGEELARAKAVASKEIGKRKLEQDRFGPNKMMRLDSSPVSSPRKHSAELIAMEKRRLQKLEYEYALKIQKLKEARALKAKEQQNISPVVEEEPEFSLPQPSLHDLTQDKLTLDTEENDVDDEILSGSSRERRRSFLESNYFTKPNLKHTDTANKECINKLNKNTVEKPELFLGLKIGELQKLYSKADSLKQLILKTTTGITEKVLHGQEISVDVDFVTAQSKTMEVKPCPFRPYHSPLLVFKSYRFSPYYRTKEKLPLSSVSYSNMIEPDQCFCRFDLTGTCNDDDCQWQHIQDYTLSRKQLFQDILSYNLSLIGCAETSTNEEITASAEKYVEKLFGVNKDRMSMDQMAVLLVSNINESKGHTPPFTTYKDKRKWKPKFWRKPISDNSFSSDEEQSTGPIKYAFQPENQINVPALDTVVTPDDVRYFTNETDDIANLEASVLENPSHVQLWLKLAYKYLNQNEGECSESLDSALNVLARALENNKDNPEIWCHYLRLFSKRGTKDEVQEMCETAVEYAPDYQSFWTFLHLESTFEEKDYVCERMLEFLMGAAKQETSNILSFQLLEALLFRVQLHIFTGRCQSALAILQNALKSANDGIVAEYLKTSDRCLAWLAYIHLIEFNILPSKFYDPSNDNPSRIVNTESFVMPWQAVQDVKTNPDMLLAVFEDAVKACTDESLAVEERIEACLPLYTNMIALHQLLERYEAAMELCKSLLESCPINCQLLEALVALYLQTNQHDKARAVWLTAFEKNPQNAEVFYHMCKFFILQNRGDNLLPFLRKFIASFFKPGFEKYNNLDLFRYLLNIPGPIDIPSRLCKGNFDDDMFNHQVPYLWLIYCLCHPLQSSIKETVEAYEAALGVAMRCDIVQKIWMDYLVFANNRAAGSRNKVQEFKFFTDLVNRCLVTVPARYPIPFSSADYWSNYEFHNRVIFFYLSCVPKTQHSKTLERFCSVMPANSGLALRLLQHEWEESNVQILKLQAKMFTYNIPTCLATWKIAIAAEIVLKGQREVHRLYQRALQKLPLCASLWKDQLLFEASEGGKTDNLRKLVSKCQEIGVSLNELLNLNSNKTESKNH

Tests used:
[1] = target: T1, TASORΔPARP-DDK (human) (UniProt Q9UK61); assay: co-IP
T1 sequence: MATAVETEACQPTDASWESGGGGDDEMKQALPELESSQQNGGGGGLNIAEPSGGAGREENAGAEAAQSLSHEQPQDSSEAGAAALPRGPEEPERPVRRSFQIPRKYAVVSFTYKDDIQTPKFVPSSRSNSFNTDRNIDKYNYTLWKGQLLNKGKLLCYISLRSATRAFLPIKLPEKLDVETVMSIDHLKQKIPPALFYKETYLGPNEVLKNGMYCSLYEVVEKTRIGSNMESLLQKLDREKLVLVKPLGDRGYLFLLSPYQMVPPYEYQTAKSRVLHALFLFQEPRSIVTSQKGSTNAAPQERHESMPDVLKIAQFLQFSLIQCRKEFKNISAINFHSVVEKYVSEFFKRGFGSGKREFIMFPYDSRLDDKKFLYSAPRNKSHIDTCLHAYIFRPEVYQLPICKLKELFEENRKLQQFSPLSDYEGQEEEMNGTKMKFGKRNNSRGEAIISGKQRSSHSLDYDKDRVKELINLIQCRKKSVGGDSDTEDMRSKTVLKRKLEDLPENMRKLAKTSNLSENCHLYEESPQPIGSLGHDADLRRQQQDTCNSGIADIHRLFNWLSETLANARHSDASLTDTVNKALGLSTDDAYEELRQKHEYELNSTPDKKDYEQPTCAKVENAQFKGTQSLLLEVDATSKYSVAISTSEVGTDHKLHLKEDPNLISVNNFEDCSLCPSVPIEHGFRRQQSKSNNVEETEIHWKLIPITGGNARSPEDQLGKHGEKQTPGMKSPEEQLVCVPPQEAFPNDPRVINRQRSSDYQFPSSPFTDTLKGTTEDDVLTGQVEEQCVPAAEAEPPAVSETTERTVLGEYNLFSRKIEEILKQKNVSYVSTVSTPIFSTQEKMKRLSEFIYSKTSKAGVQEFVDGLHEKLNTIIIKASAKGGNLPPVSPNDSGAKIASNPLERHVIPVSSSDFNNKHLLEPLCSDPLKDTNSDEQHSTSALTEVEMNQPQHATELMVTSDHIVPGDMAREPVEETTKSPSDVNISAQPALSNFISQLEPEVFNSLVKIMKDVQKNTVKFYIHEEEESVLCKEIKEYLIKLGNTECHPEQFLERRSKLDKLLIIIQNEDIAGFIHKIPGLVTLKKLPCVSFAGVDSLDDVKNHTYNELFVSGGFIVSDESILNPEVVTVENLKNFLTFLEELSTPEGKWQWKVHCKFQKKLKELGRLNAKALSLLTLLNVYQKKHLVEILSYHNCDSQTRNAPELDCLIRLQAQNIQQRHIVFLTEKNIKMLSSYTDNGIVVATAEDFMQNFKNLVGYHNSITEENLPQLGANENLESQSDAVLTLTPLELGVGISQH

[2] = target: TASOR-DDK (pLenti-TASOR-myc-DDK) (human) (UniProt Q9UK61); assay: co-IP
[3] = target: endogenous TASOR (human (endogenous in HeLa and in Jurkat-derived J-Lat A1)) (UniProt Q9UK61); assay: co-IP; TASOR or rabbit IgG immunoprecipitation in J-Lat A1 lysates; western blot
[4] = target: endogenous TASOR (human (endogenous in HeLa and in Jurkat-derived J-Lat A1)) (UniProt Q9UK61); assay: co-IP; endogenous immunoprecipitation (anti-TASOR, anti-CNOT1 or anti-MTR4, 4 µg antibody overnight, protein A/G magnetic beads) from the nuclear fraction of HeLa HIV-1 LTR-ΔTAR-Luc cells; western blot
[5] = target: T2, endogenous MTR4 (human (endogenous in HeLa)) (UniProt P42285); assay: as above
T2 sequence: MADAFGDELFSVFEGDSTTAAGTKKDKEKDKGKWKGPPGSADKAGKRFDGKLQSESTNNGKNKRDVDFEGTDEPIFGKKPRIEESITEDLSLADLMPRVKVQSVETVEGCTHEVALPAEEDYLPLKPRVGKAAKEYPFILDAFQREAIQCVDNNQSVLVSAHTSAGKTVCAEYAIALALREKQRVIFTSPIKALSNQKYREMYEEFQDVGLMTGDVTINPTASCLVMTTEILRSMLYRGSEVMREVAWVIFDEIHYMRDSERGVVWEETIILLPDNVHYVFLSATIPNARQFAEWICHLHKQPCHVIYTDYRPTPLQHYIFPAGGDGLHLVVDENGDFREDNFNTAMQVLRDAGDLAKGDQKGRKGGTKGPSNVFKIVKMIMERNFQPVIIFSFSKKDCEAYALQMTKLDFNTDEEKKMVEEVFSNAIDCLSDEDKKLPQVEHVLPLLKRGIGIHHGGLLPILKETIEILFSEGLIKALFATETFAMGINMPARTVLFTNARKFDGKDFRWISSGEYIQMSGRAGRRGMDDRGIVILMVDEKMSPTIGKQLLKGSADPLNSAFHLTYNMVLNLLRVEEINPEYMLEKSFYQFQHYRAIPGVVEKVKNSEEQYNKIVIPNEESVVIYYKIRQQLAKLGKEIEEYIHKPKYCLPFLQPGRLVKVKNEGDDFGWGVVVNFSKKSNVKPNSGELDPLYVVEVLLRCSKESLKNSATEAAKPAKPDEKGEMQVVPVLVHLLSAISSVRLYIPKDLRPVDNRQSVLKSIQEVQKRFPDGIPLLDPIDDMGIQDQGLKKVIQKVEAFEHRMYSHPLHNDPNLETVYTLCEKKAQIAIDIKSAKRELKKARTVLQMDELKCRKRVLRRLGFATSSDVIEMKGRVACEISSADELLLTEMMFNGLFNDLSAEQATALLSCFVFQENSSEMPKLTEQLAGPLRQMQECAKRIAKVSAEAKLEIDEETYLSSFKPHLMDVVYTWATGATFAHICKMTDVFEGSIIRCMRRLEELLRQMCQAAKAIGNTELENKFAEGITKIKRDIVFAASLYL

[6] = target: DDK-tagged CNOT7 (UniProt Q9UIV1); assay: co-IP
[7] = target: endogenous CNOT1 (CCR4-NOT transcription complex subunit 1) (human (endogenous in HeLa and in Jurkat-derived J-Lat A1)) (UniProt A5YKK6); assay: co-IP; endogenous immunoprecipitation (anti-TASOR, anti-CNOT1 or anti-MTR4, 4 µg antibody overnight, protein A/G magnetic beads) from the nuclear fraction of HeLa HIV-1 LTR-ΔTAR-Luc cells; western blot
[8] = target: T2, endogenous MTR4 (human (endogenous in HeLa)); assay: as above; remark: listed apart in the source
[9] = target: endogenous TASOR (human (endogenous in HeLa and in Jurkat-derived J-Lat A1)) (UniProt Q9UK61); assay: as above; remark: listed apart in the source
[10] = target: endogenous CNOT1 (CCR4-NOT transcription complex subunit 1) (human (endogenous in HeLa and in Jurkat-derived J-Lat A1)) (UniProt A5YKK6); assay: as above; remark: listed apart in the source

binding [1]: no binding | binding [2]: binds | binding [3]: binds | binding [4]: binds
Molecule: endogenous CNOT1 (CCR4-NOT transcription complex subunit 1) (from UniProt A5YKK6 1-2376)

binding [5]: no binding | binding [4]: binds
Molecule: endogenous CNOT7 (from UniProt Q9UIV1 1-285)

binding [6]: binds | binding [5]: binds | binding [7]: binds
Molecule: endogenous TASOR (from UniProt Q9UK61 1-1670)

binding [4]: binds
Molecule: endogenous ZFC3H1 (from UniProt O60293 1-1989)

binding [8]: binds | binding [9]: binds | binding [10]: binds
B1: endogenous EXOSC10 (protein, UniProt Q01780 1-885)
chain: MAPPSTREPRVLSATSATKSDGEMVLPGFPDADSFVKFALGSVVAVTKASGGLPQFGDEYDFYRSFPGFQAFCETQGDRLLQCMSRVMQYHGCRSNIKDRSKVTELEDKFDLLVDANDVILERVGILLDEASGVNKNQQPVLPAGLQVPKTVVSSWNRKAAEYGKKAKSETFRLLHAKNIIRPQLKFREKIDNSNTPFLPKIFIKPNAQKPLPQALSKERRERPQDRPEDLDVPPALADFIHQQRTQQVEQDMFAHPYQYELNHFTPADAVLQKPQPQLYRPIEETPCHFISSLDELVELNEKLLNCQEFAVDLEHHSYRSFLGLTCLMQISTRTEDFIIDTLELRSDMYILNESLTDPAIVKVFHGADSDIEWLQKDFGLYVVNMFDTHQAARLLNLGRHSLDHLLKLYCNVDSNKQYQLADWRIRPLPEEMLSYARDDTHYLLYIYDKMRLEMWERGNGQPVQLQVVWQRSRDICLKKFIKPIFTDESYLELYRKQKKHLNTQQLTAFQLLFAWRDKTARREDESYGYVLPNHMMLKIAEELPKEPQGIIACCNPVPPLVRQQINEMHLLIQQAREMPLLKSEVAAGVKKSGPLPSAERLENVLFGPHDCSHAPPDGYPIIPTSGSVPVQKQASLFPDEKEDNLLGTTCLIATAVITLFNEPSAEDSKKGPLTVAQKKAQNIMESFENPFRMFLPSLGHRAPVSQAAKFDPSTKIYEISNRWKLAQVQVQKDSKEAVKKKAAEQTAAREQAKEACKAAAEQAISVRQQVVLENAAKKRERATSDPRTTEQKQEKKRLKISKKPKDPEPPEKEFTPYDYSQSDFKAFAGNSKSKVSSQFDPNKQTPSGKKCIAAKKIKQSVGNKSMSFPTGKSDRGFRYNWPQR
